# Test results from ChEMBL document CHEMBL4888484, “Replenishing the malaria drug discovery pipeline: Screening and hit evaluation of the MMV Hit Generation Library 1 (HGL1) against asexual blood stage Plasmodium falciparum ,using a nano luciferase reporter read-out” (2022).
# In all, about 150,000 compounds went through this assay and about 540 (0.36%) showed an effect of 50% or more. The list shows a part of the results.
# Tested on: Plasmodium falciparum
# Test: Primary screen in NF54 nanoGlo assay, in single point, at 2uM, 72h; a lower Z score goes with more inhibition
# Type: functional, Erythrocyte
# Settings: timepoint 72 hour
Compound,% Inhibition [%],Z score
Cc1cccc(CNCc2cc(NS(C)(=O)=O)cc(C(=O)Nc3ccccc3)c2)c1,18,-3.39
COc1cc2c(cc1CN1CCCC[C@H](N(C)C)C1)OCCCO2,-1,0.12
CCOc1ccccc1CNC(=O)C1CCN(c2ncnc3c2oc2ccccc23)CC1,-10,1.17
c1nc(C2CCC2)cc(N2CCOCC2)n1,3,-0.31
CCOC(=O)CC1(N(C)C(=O)CNC(=O)OC)CCCCC1,-4,0.52
C[C@@H](CNC(=O)CC1CCNCC1)c1ccc(F)cc1F,-7,0.7
Cc1ccc(OCC(=O)NCCC2CCN(C(=O)Nc3ccc(F)cc3)CC2)cc1,2,-0.25
CN1CCC(NC2(c3ccc(Br)cc3)CC2)CC1,-5,0.94
Cc1oc(C)c(C(=O)N(C)C2(C#N)CCC2)c1Br,-15,1.56
CN(CCC(=O)NCc1ccc(F)cc1)CC1CCCC1,-8,1.31
O=C(c1ccc2cc[nH]c2c1)N1CC(Nc2ncccn2)C1,-16,1.86
COC[C@]1(C(=O)NCCc2cccc3cccnc23)CCOC1,-12,1.53
COc1ccc(CN2C[C@H]3CN(Cc4nccs4)CCN3C2=O)cc1,17,-1.97
N#CC1(c2ccc3c(c2)OCO3)CCCCCC1,-8,0.76
NC(=O)C1CCCCC1Nc1ccc2nccnc2n1 (configuration not stated),-11,1.3
CCc1nnc(NCCc2nc(-c3cccnc3)n[nH]2)o1,-9,1.15
Cn1cc(C(=O)N2CCC[C@H](n3cccn3)C2)c(-c2ccncc2)n1,-1,0.2
COc1ccc(OC)c([C@@H](O)CNc2ccncc2Cl)c1,-9,1.18
COCC(C)(C)N1CCN(Cc2ccsc2C(=O)O)CC1,5,-0.68
COc1cc(CNC2CCCC2)cc(Cl)c1OCc1ccc(C)cc1,-8,1
CCc1cc(C(=O)Nc2ccc(F)cc2C)nc2ccnn12,0,0.06
Cc1cc(C(=O)N2CCC3(CC2)CC(=O)N(CC(C)C)C3)nc(C)n1,-22,2.31

Compound,% Inhibition [%],Z score
C=CCC[C@H](O)CN1CC(C)(C)OC(C)(C)C1,-13,1.21
Brc1cnc2[nH]c(CN3CCCCC3)nc2c1,-4,0.79
COC(=O)c1ccc(Cl)c(Cc2noc(C(=O)NC[C@@H]3CCCN4CCCCC34)n2)c1 (some centres not stated),-9,1.21
Cc1ccc(C)c(CNc2cc(C(=O)N(C)Cc3nccs3)cc(S(=O)(=O)N(C)C)c2)c1,-7,0.8
Cc1nn(C)c(C)c1CC(=O)Nc1ccc(N(C)C)nc1,-5,0.89
Cc1ccc(OCC(=O)N2C[C@@H](CN3CCCCCC3)[C@@H](CO)C2)cc1C,-8,1.31
COc1ccc(/C=C(\C(=O)N(C)Cc2ccccc2)n2ccccc2=O)cc1,-31,3.64
Cc1cc(C)n(-c2ccc(NC(=O)c3oc4c(c3C)C(=O)CC(C)(C)C4)cc2F)n1,-19,2.5
CO[C@@H](CS(=O)(=O)Nc1cncc(N2CCCC2)n1)c1ccc(F)cc1,-11,1.5
Cc1ccccc1CN1CCN2C(=O)N(C3CCCCC3)C[C@H]2C1,-3,0.33
Cc1cc(C)nc(N2CC[C@H](N(C)C(=O)OC(C)(C)C)C2)n1,-7,1.17
Cc1nnc(N[C@H]2CCN(Cc3ccccc3)C2)o1,4,-0.71
O=S(=O)(c1ccccc1)c1cnc2ccccc2c1N1CCCC1,-9,1.46
O=C(c1cn(C[C@H]2CCCO2)nn1)N1CCC(Oc2cccc(C(F)(F)F)c2)CC1,-16,2.27
COc1ccc(NC(=O)[C@@H](c2ccccc2)C2CC2)cn1,0,0.02
CCOC(=O)c1nnc2ccccc2c1N(C)Cc1ccccc1,-8,0.82
Cc1ccc(CNC(=O)c2[nH]c3ccc(F)cc3c2NC(=O)c2ccccc2)cc1,-1,0.25
Cc1cccnc1C1CCCC(NCc2ncnn2C(C)(C)C)C1 (configuration not stated),0,0.06
COc1ccc(OC)c(CN(Cc2ccc3c(c2)OCO3)Cc2nc(C(=O)N3CCN(C(C)=O)CC3)co2)c1,-9,0.9
COc1cc(C(=O)NC(C)(C)CN(C)C)c(Cl)cc1OC(C)C,7,-1.35
Cc1ccc(NC(=O)Cn2cnc3nc(-c4cccnc4)ncc3c2=O)cc1F,-17,2
CN(C)c1cc(C(=O)Nc2ncc(Cc3ccc(F)cc3F)s2)ccn1,0,0

Compound,% Inhibition [%],Z score
Cc1cc(F)ccc1OC(=O)c1cn(C)nc1C,-7,0.75
COc1ncccc1CNC1CCCC1C1CCCN1C(=O)OC(C)(C)C (configuration not stated),7,-0.87
C=CCC(O)(CC=C)[C@H](C)NC(=O)c1ncc[nH]1,-7,1.26
Cc1ccc2nc(COc3cccc(C(=O)N(CC(F)F)C[C@H]4CCC=CO4)c3)cn2c1,-2,0.29
Cc1c[nH]nc1COCc1cc(F)ccc1OC(F)F,2,-0.17
Cc1nc2ccnn2cc1C(=O)N1CC[C@@](F)(c2ccccc2F)C1,-7,0.88
Cc1nc(-c2ccccc2)n(CCCOc2ccc(C)c(C)c2)n1,-2,0.36
CC[C@H](NC(=O)c1c(C)ncn1C)c1ccc(C)cn1,-13,1.41
C[C@H]1CN(C)CCN1C(=O)c1csnn1,-2,0.31
O=C1COc2ccc(S(=O)(=O)N3CCCc4cc(C(=O)O)ccc43)cc2N1,-2,0.3
O=C(Cn1ncccc1=O)N1CC(S(=O)(=O)C2CCCCC2)C1,-21,2.65
Cc1cc(C(=O)NCc2ccc(Cl)cc2)c2cccc(-c3ccccc3)c2n1,7,-0.81
CC(C)n1cc([C@]2(O)CCCN(C(=O)COCc3ccccc3)C2)nn1,0,-0.04
CCCc1nnsc1C(=O)Nc1ccc2[nH]ccc2c1,5,-0.78
CCO[C@H]1CN(C)C[C@@H]1NS(=O)(=O)c1ccc(C)cc1,-1,0.19
NC[C@H]1CC[C@@H](C(=O)NC2CC2c2c(F)cccc2F)O1 (some centres not stated),11,-1.15
c1ccc2c(-c3noc([C@@H]4CN5CC6CC5(CO4)C6)n3)nccc2c1,-11,1.69
COc1ccnc(-c2nc([C@H]3CCOC3)no2)c1,-5,0.8
Cc1nc(-c2csc(S(=O)(=O)N3CCC[C@H](C(=O)N4CCCC4)C3)c2)no1,-5,0.62
O=C(CCNC(=O)c1ccncc1)NCCO,-9,1.65
O=C(NC[C@H]1CCC(=O)N(Cc2ccccc2)CC1)c1cncc(Br)c1,-16,1.55
Cc1nc(-c2ccncc2)sc1-c1ccncn1,2,-0.24

Compound,% Inhibition [%],Z score
O=C(C(=O)N(CC(F)(F)F)C1CC1)c1ccc(-c2ccccc2)cc1,8,-1.09
Cc1ccc(S(=O)(=O)N2CC(=O)N(C3CCCC3)C3(CCCCC3)C2)c(C)c1,-7,0.99
CCn1cc(Cl)c(C(=O)N(C[C@H]2CCOC2)C2CCN(C)CC2)n1,-1,0.07
CC[C@H]1COCCN1S(=O)(=O)N1CCC(OC)CC1,-2,0.16
Cc1ccc(Oc2ccc(Cl)cc2NC(=O)CCc2nnc(-c3ccsc3)o2)cc1,-3,0.41
O[C@@H]1CCCC[C@H]1CNCc1cnnn1Cc1ccccc1,0,0.05
C#Cc1cccc(NC(=O)C(C)(C)C)c1,-10,1.43
CC(C)S(=O)(=O)CC(=O)N1CCC[C@H](C(C)(C)C)CC1,-12,1.58
Cc1nccn1Cc1ccc(NC2CCN(C(C)C)CC2)cc1,-8,0.74
Cc1ccsc1CN(C)Cc1n[nH]c(C)c1Cl,-3,0.32
COc1cccc(OCCc2ccccc2S(N)(=O)=O)c1,-3,0.47
CC(=O)N1CCC(C(=O)N2C[C@@H]3NC(=O)CN(C4CC4)Cc4cccc(c4)Oc4cccc(c4)CO[C@H]3C2)CC1,-2,0.26
COc1cc(C(=O)N2CCc3[nH]ncc3C2)nc(OC)n1,-10,1.44
CN(Cc1nnc[nH]1)C(=O)c1ccc(C(F)(F)F)cc1Cl,-9,1.52
C=CCCC1COC(c2ccc(C#N)cc2)OC1 (configuration not stated),-47,5.53
O=C(c1ccc[n+]([O-])c1)N(Cc1ccccc1)Cc1ccccc1,34,-4.96
O=C(N[C@H](c1cccnc1)C(F)(F)F)c1cnn(-c2ncc3c(n2)-c2ccccc2CC3)c1C1CC1,-1,0.21
CCOC(=O)c1cnn(-c2ccccn2)c1CN1CC[C@@](O)(c2ccccc2)[C@H]2CCCC[C@H]21,-9,1.09
CCOC(=O)CCNC(=O)Cc1csc(NC(C)C(C)CC)n1 (configuration not stated),-11,1.92
O=C(O)CN(C1CC1)C1Cc2ccccc2C1,-7,0.89
